According to PubChem BioAssay AID488969 (Vanderbilt High Throughput Screening Facility, 2010):
The full ranking holds about 110,000 compounds; the median of “z-score” is about -0.1, and the highest 2% start at about 2. Some of the results follow.

What follows are compounds tested against Metabotropic glutamate receptor 8 (Rattus norvegicus) (UniProt P70579) (assay: mGluR8 Gi/Go-coupled signaling modulation – cell-based, rat, thallium flux, HTS, primary screen (AID 488969)). Details: HEK293 rat mGluR8, GIRK (G protein-gated inwardly rectifying potassium channel) thallium flux, FluoZin2; at 10 µM; stronger effect = higher value; submaximal glutamate (EC20) added with thallium.
UniProt P70579, sequence (P70579 whole entry, looked up): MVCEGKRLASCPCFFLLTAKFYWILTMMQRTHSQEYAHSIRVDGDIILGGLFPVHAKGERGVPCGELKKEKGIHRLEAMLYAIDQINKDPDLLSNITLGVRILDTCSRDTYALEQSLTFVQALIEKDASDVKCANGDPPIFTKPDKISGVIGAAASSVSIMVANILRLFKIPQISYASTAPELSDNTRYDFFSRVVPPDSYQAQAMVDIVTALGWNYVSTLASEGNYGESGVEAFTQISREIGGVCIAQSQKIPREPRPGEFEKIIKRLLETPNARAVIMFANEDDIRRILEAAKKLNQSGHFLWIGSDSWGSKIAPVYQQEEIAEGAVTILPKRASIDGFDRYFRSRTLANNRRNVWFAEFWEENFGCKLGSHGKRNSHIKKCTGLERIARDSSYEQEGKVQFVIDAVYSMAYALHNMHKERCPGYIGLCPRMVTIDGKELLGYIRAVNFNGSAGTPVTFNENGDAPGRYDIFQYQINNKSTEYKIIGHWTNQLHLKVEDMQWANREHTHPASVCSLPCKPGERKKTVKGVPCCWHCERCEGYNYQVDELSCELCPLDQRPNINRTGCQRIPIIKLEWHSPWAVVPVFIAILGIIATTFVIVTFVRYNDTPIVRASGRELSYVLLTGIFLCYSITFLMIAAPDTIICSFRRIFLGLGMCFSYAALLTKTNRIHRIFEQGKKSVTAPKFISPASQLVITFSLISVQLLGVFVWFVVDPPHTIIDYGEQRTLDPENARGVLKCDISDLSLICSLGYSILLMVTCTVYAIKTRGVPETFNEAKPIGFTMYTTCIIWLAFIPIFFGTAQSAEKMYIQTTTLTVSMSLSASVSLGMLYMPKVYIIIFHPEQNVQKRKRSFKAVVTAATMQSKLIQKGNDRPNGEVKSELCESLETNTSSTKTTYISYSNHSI

SMILES | z-score
Cc1nc2c(C(=O)N3CCCC3)cnn2c(C)c1Cc1c(F)cccc1Cl | -0.165
O=C(c1ccco1)N1CCN(C(=O)C2CCCc3c2[nH]c2ccc(Cl)cc32)CC1 (centres undefined) | 0.664
COc1cc2[nH]c(=S)n(Cc3ccco3)c(=O)c2cc1OC | -0.209
O=C1NCCN/C1=C\C(=O)c1ccccc1 | -0.207
Cc1ccc(OCC(O)CN2C(=O)NC(C)(C)C2=O)cc1 (centres undefined) | -0.38
FC(F)(F)c1nnc(-c2ccccc2)nc1Oc1ccc(Cl)cc1Cl | -0.78
COc1ccc(CCNC(=O)c2[nH]c(C)c(C(C)=O)c2C)cc1 | 0.356
CC(=O)/C(=N/Nc1ccccc1)Sc1nnc(C(O)c2ccccc2)n1-c1ccccc1 (centres undefined) | -0.33
CCOC(=O)c1cc(-c2ccco2)nc2c1c(C)nn2CCC#N | -0.644
Cc1ncc([N+](=O)[O-])n1CCOC(=O)NC(NCc1cccnc1)C(Cl)(Cl)Cl (centres undefined) | -0.077
O=C(Nc1ccc2c(c1)CCC2)c1ccc(Br)o1 | 0.541
CC(=O)[C@@H]1[C@@H](C(=O)c2ccc(C)cc2)[C@]2(C(=O)Nc3ccccc32)[C@H]2C=Cc3cc(F)ccc3N12 | 0.0643
CC1=Nc2ccccc2NC(=O)C1Sc1nnc(C)s1 (centres undefined) | -0.879
CC(C)CNC(=O)CC(c1ccccc1)c1c(O)ccc2ccccc12 (centres undefined) | -1.19
Cc1nnc(SCC(=O)NCCc2ccccc2)[nH]c1=O | 0.28
Cc1ccsc1-c1ccnc(-n2cccc2)n1 | 0.125
COc1cc(NC(=O)c2cc(-c3ccco3)on2)c(OC)cc1Cl | 0.0265
Nc1c(-c2ccccc2)c(CN2CCOCC2)nn1-c1ccc(C(=O)O)cc1 | 0.443
COc1ccc(-n2c(COc3cccc(C)c3)nnc2SCC(=O)NCc2ccco2)cc1 | -0.29
CCOc1ccc(NC(=O)C(C)SC(N)=O)cc1 (centres undefined) | -0.575
O=C(NCc1ccccc1)C1CCN(S(=O)(=O)N2CCCCCC2)CC1 | 0.233
CCCn1c(SCC(=O)Nc2cccc(C)n2)nnc1-c1ccco1 | 1.16
O=c1[nH]c(SCc2nc3c(cnn3-c3ccccc3)c(=O)[nH]2)nc2ccccc12 | -0.279
O=C(/C(C=Nc1cccc(C(F)(F)F)c1)=C(/O)c1ccco1)C(F)(F)F | 0.128
Cc1cc(C)nc(NC(=NCCc2c[nH]c3ccccc23)NC(=O)Nc2ccc(Cl)c(Cl)c2)n1 | -0.0996
COc1ccc(/C=N/NC(=O)Cn2c(Cc3ccc(OC)c(OC)c3)nc3ccccc32)cc1OC | -0.559
CCCCSc1nc(C)c(C(C)=O)cc1C#N | 0.35
O=C(CCN1CCN(C(c2ccccc2)c2ccccc2)CC1)N/N=C/c1ccc(O)cc1 | -0.602
COc1ccc(Cl)cc1C(=O)NCC(c1ccco1)N1CCCC1 (centres undefined) | 0.25
